Source: publication PMC5836133
Some of the results follow. At the low end of the ranking the order means little.

System: T1, GST-NbGlk1(82-244)
T1 sequence: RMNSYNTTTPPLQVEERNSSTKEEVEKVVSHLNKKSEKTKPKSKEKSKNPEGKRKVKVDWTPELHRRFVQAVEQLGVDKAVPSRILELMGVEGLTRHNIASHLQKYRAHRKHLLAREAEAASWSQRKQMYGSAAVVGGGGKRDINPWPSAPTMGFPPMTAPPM
Assay: protein-binding microarray;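 also: rank-based score ranging −0.5 to +0.5 with E above 0.45 taken as significant binding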
Details: NbGlk1 is a Golden2-like transcription factor of Nicotiana benthamiana; high values mean tight binding; most listed sequences are background and not binding sites; double strand, one strand shown

Row | Sequence | binding signal [E-score]
1 | CACCGGGG | -0.127
2 | CAGATTGG | 0.0389
3 | AGTCCCGG | -0.317
4 | CACTAGTG | 0.00884
5 | ACGGGTCG | -0.285
6 | AAACCTAA | -0.0986
7 | AACATCGC | 0.063
8 | AGCCCTTG | -0.211
9 | CACCTTCA | -0.0871
10 | ACGCCTCT | -0.264
11 | AAAGCTGG | -0.0227
12 | CACGATAC | 0.116
13 | ATTGACGA | -0.0237
14 | AATCTCCC | 0.387
15 | CAACGTTC | -0.142
16 | ACCGGCGG | -0.143
17 | ATTGTTTC | 0.0745
18 | ACGCGCAG | -0.109
19 | AATGGGCA | -0.178
20 | ATCAGTCG | 0.00923
21 | CACACTTC | 0.0916
22 | ATGATCCA | 0.149

Row | Sequence | binding signal [E-score]
23 | AACGAACC | -0.153
24 | AATAATGC | 0.174
25 | ACCTGAGT | -0.155
26 | AAGTGTGA | 0.019
27 | AACGGCAT | -0.147
28 | ACTGGACC | -0.173
29 | ACGGTACC | 0.036
30 | AACTCCAA | -0.0275
31 | ACGAAGCA | -0.124
32 | ATACAAGA | 0.127
33 | AAAATTTC | 0.276
34 | CAGAGAAC | -0.0236
35 | AGAACCTA | -0.0884
36 | ATTCGCTG | 0.298
37 | AAGTGAGT | -0.0722
38 | ATATGTAG | 0.163
39 | AGCCTTGA | -0.0553
40 | ACCTGTGG | -0.162
41 | ATGGGCGC | -0.116
42 | ACAGAATG | -0.153
43 | ATCAATAC | 0.175
44 | AACGGTTC | -0.208

Row | Sequence | binding signal [E-score]
45 | ATTCCTGG | 0.119
46 | AGCTCATC | -0.191
47 | AGCGTAAG | -0.15
48 | CAAAGAGC | -0.175
49 | ATGCCATG | -0.255
50 | AGAAACCA | -0.00454
51 | CACCCCTC | -0.154
52 | ACGGTGAT | 0.223
53 | AGGTCAAG | -0.145
54 | AGAGCCAT | -0.143
55 | AAGCGTAT | 0.1
56 | AGGCGAAC | -0.158
57 | CACCCCGG | -0.344
58 | AATTGTCC | 0.117
59 | AAGTTAAT | 0.0355
60 | AACGAAAG | 0.0404
61 | AACAAAGT | -0.0877
62 | ATTCGGGA | 0.286
63 | AGCCACTA | -0.0957
64 | AGTAACGA | 0.0335
65 | AGACTCAA | -0.116
66 | ACGTGATA | 0.186

Row | Sequence | binding signal [E-score]
67 | ATATTGTG | 0.235
68 | CACCGTAG | -0.204
69 | AGTTTCAC | -0.103
70 | CACCCCAG | -0.0975
71 | ACAACGTA | 0.0956
72 | AGGGTCAA | -0.142
73 | ATCATGCA | 0.0462
74 | ACCATCGT | -0.122
75 | ACCGGTGA | -0.176
76 | ATACCAAC | 0.0082
77 | AAGGACTA | -0.137
78 | AGGTCATC | -0.297
79 | CAAATAAC | 0.129
80 | ACGTTGAC | -0.218
81 | ACCTCTTA | -0.0337
82 | AATACGCA | 0.158
83 | ATGTGGGC | -0.228
84 | AAAAAAAA | 0.221
85 | ACCGGAAA | -0.023
86 | AAGAAGTC | -0.0686
87 | AGCGATAC | 0.159
88 | AAAAAGTC | 0.0671

Row | Sequence | binding signal [E-score]
89 | AGCGTACA | -0.00954
90 | ATTTAGCG | 0.132
91 | AAGATCTT | 0.399
92 | ATATAAGC | 0.0407
93 | AATTTTGC | 0.0496
94 | AGCTGAAC | -0.255
95 | AAACAAGG | -0.0516
96 | ATCGGGGG | -0.0347
97 | ATACTGAG | 0.104
98 | ACTGTACC | -0.163
99 | ATCGCTTG | 0.192
100 | AGTCCGCC | -0.227
101 | ATTACCGG | 0.18
102 | ATTTAATC | 0.117
103 | ACCTGTTG | -0.118
104 | CAGATAAG | 0.118
105 | ATAGGCAG | -0.0725
106 | ATCAGATC | 0.35
107 | ATTTTCGA | 0.266
108 | AGATTCAT | 0.24
109 | AGATCTGC | 0.411
110 | ACGCCGGG | -0.153
